The supplement of paper PMC9334596
Where “and” joins values, the source holds several entries; their conditions need not be identical. Equal values may be shown once. Whole data set: some 5,300 compounds, median “PER2::LUC luminescence relative to vehicle control” near 0.96, cut for the highest 2% near 1.3. This is one part of the list.

Tested on: mPer2Luc MEF
Experiment: PER2::LUC luminescence relative to vehicle control (fold of vehicle); higher = higher PER2::LUC reporter signal
Details: 10 µM
Outline: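 Compounds from commercial libraries were added at 10 μM to 384-well plates seeded 48 h earlier with ~3000 mPer2Luc mouse embryonic fibroblasts per well. The cells were kept in DMEM with 10% FBS at 37 °C and 5% CO2. Luminescence was read with ONE-Glo 24 h and 30 h after treatment, then an alamarBlue viability assay was run. Values are PER2::LUC luminescence relative to vehicle control, as fold change.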

Row | Structure (SMILES) | PER2::LUC luminescence (time after treatment 24 h) | PER2::LUC luminescence (time after treatment 30 h)
1 | COc1cc(C(=O)NCCCCCC(=O)O)cc(OC)c1OC | 1.03 | 1.03
2 | c1ccc(-c2[nH]ncc2-c2ccnc3ccccc23)nc1 | 0.649 | 0.66
3 | CCCSc1nc(N[C@@H]2C[C@H]2c2ccc(F)c(F)c2)c2nnn([C@@H]3C[C@H](OCCO)[C@@H](O)[C@H]3O)c2n1 | 0.714 | 0.753
4 | C=CC(=O)Nc1cccc(Nc2nc(Nc3ccc(Oc4ccnc(C(=O)NC)c4)cc3)ncc2F)c1 | 0.353 | 0.536
5 | Cc1nnsc1C(=O)Nc1ccc(-n2nc(C(F)(F)F)cc2C(F)(F)F)cc1 | 1.02 | 0.946
6 | Cn1cc(-c2cnn3c(N)c(Br)c([C@@H]4CCCNC4)nc23)cn1 | 0.427 and 0.512 | 0.595 and 0.48
7 | N[C@H](CCC(=O)O)C(=O)O | 1.1 | 1.01
8 | N[C@@H]1CONC1=O | 0.926 and 0.804 | 0.996 and 1.09
9 | O=C(O)COCCN1CCN(C(c2ccccc2)c2ccc(Cl)cc2)CC1 (stereo not drawn) | 1.26 | 1.1
10 | CCCCC(CC)CCC(CC(C)C)OS(=O)(=O)O (stereo not drawn) | 1.04 | 0.97
11 | O=C(O)/C=C/c1ccc(O)c(O)c1/C(=C\c1ccc(O)c(O)c1)C(=O)O | 1.15 | 1.02
12 | COc1ccc2cc([C@H](C)CO)ccc2c1 | 0.806 | 0.824
13 | O=C1c2ccccc2C(=O)C1c1ccc(Cl)cc1 | 0.996 and 1.05 | 1.07 and 1.16
14 | C#C[C@]1(OC(C)=O)CC[C@H]2[C@@H]3CCC4=CC(=NO)CC[C@@H]4[C@H]3CC[C@@]21CC (mixture of isomers) | 0.98 | 0.991
15 | N[C@H]1C[C@@H]1c1ccc(-c2cccc(O)c2)cc1 | 1.15 | 1.08
16 | O=C(Nc1ccc(C(O)(C(F)(F)F)C(F)(F)F)cc1)c1ccc(C(F)(F)F)cc1 | 0.687 | 0.47
17 | Clc1ccc(CO/N=C(\Cn2ccnc2)c2ccc(Cl)cc2Cl)c(Cl)c1 | 0.889 | 1.15
18 | O=C(O)C1CCCN(CCC=C(c2ccccc2)c2ccccc2)C1 (stereo not drawn) | 1.05 | 0.977
19 | CC(C)c1cc(-c2n[nH]c(=O)n2-c2ccc3c(ccn3C)c2)c(O)cc1O | 0.062 | 0.052
20 | CC(=O)O[C@]1(C(C)=O)CC[C@H]2[C@@H]3C=C(Cl)C4=CC(=O)[C@@H]5C[C@@H]5[C@]4(C)[C@H]3CC[C@@]21C | 1.03 | 1.11
21 | CCCN(CCc1cccs1)C1CCc2c(O)cccc2C1 (racemic) | 0.965 | 0.906

Row | Structure (SMILES) | PER2::LUC luminescence (time after treatment 24 h) | PER2::LUC luminescence (time after treatment 30 h)
22 | O=C(O)/C=C/c1ccc(O)c(O)c1 | 0.886 | 0.894
23 | CCCCc1nc2cc(/C=C/C(=O)NO)ccc2n1CCN(CC)CC | 0.364 and 0.349 | 0.318 and 0.324
24 | CNCCn1c(=O)c2cc(OC)c(OC)cc2c2cnc3cc4c(cc3c21)OCO4 | 0.404 | 0.368
25 | Clc1ccc(Cn2c(CN3CCCC3)nc3ccccc32)cc1 | 1.06 and 0.848 | 0.924 and 0.834
26 | COc1cc2nc(N(C)CCCNC(=O)C3CCCO3)nc(N)c2cc1OC (stereo not drawn) | 0.889 | 0.853
27 | CS(=O)(=O)c1ccc([C@@H](CC2CCCC2)C(=O)Nc2nccs2)cc1 | 0.951 | 0.553
28 | C[C@@](N)(C(=O)O)c1ccc(C(=O)O)cc1 | 1.01 | 0.938
29 | CCCCCOc1ccc(-c2cc(-c3ccc(C(=O)N[C@H]4C[C@@H](O)[C@@H](O)NC(=O)[C@@H]5[C@@H](O)[C@@H](C)CN5C(=O)[C@H]([C@H](O)CC(N)=O)NC(=O)[C@H]([C@H](O)[C@@H](O)c5ccc(O)c(OS(=O)(=O)O)c5)NC(=O)[C@@H]5C[C@@H](O)CN5C(=O)[C@H]([C@@H](C)O)NC4=O)cc3)no2)cc1 | 0.871 | 0.869
30 | CC(=O)O[C@]1(C(C)=O)CC[C@H]2[C@@H]3CCC4=CC(=O)CCC4=C3[C@@H](c3ccc(N(C)C)cc3)C[C@@]21C | 0.911 | 0.861
31 | COc1cc(C)c(Sc2cnc(NC(=O)c3ccc(CNC(C)C(C)(C)C)cc3)s2)cc1C(=O)N1CCN(C(C)=O)CC1 (stereo not drawn) | 0.554 | 0.433
32 | O=C(O)c1cc(C(F)(F)F)ccc1N1CC[C@H](OCc2ccccn2)C1 | 1.03 | 0.99
33 | CC(=O)Nc1nc2c(Oc3cc(-c4ccc(C(F)(F)F)cc4)ncn3)cccc2s1 | 0.944 | 0.971
34 | O=C(O)Cc1nn(Cc2ccc(Br)cc2F)c(=O)c2ccccc12 | 1.1 | 1.06
35 | OCC1OC(n2cnc3c(NC4CCCCC4)ncnc32)C(O)C1O (stereo not drawn) | 0.986 | 1.02
36 | N[C@@H](Cc1c[nH]c2ccc(O)cc12)C(=O)O | 1.08 and 1.02 | 1.03 and 0.941
37 | CN1C[C@@H]2C[C@H]1CN2c1cc2c(cc1F)c(=O)c(C(=O)O)cn2C1CC1 | 0.856 | 0.924
38 | N=C(N)Nc1ccc(C(=O)Oc2ccc3cc(C(=N)N)ccc3c2)cc1 | 1.05 | 1
39 | CC(Cc1ccccc1)(NC(=O)CN)c1ccccc1 (racemic) | 0.964 | 1.04
40 | CCCCCCCCCCCCCCCC(=O)OC[C@@H](NC(=O)C(Cl)Cl)[C@H](O)c1ccc([N+](=O)[O-])cc1 | 1.01 | 0.952
41 | O=c1cnn([C@@H]2O[C@H](CO)[C@@H](O)[C@H]2O)c(=O)[nH]1 | 1.41 | 1.5
42 | CC12C=Cc3occc3C1CCC13CC(=O)C(CCC12)C3 (stereo not drawn) | 0.973 | 0.929

Row | Structure (SMILES) | PER2::LUC luminescence (time after treatment 24 h) | PER2::LUC luminescence (time after treatment 30 h)
43 | Nc1cccc2c1C(=O)N(C1CCC(=O)NC1=O)C2=O (stereo not drawn) | 1.1 | 0.928
44 | COc1cc(O)c(C(=O)c2ccccc2)cc1S(=O)(=O)O | 1.13 | 0.948
45 | Oc1ccc(OC2CCCCO2)cc1 (stereo not drawn) | 1.05 | 1.01
46 | CNCc1ccccc1 | 0.963 | 0.906
47 | C=C1C[C@@]23CC[C@H]4[C@@](C)(CCC[C@@]4(C)C(=O)O)[C@@H]2CC[C@]1(O)C3 | 0.886 | 1.12
48 | O=C(O)CCCCCCCCCCCC[C@@H]1C=CCC1 | 1.04 | 1.03
49 | COc1cc(OC)c2c(=O)c(O)c(-c3ccc(OC)c(OC)c3)oc2c1 | 0.853 | 0.967
50 | CCCCN(CCCC)S(=O)(=O)c1ccc(C(=O)O)cc1 | 0.899 | 1.04
51 | COc1cc(C(=O)O)ccc1NC(=O)[C@@H]1N[C@@H](CC(C)(C)C)[C@](C#N)(c2ccc(Cl)cc2F)[C@H]1c1cccc(Cl)c1F | 1.26 | 0.931
52 | COc1cc(O)c(C(C)=O)c(O)c1 | 0.954 | 0.96
53 | O=C(O)C(O)Cc1ccc(O)c(O)c1 (stereo not drawn) | 0.979 | 0.802
54 | Cc1cc(=O)oc2cc(O)c(O)cc12 | 0.877 | 0.903
55 | N[C@@H](Cc1cc(I)c(Oc2cc(I)c(O)c(I)c2)c(I)c1)C(=O)O | 0.93 and 0.868 | 1.04 and 1.02
56 | CC1(C)CCC(C)(C)c2cc(NC(=O)c3ccc(C(=O)O)cc3)ccc21 | 1.77 | 1.63
57 | CN1C[C@H](O)[C@@H](O)[C@H](O)[C@H]1CO | 0.613 | 0.528
58 | N=C(N)NC(=O)Cc1c(Cl)cccc1Cl | 0.947 | 0.943
59 | O=C1Nc2ccccc2/C1=C1/Nc2ccccc2C1=O | 1.09 | 0.954
60 | Clc1ccc(CSC(Cn2ccnc2)c2ccc(Cl)cc2Cl)cc1 (stereo not drawn) | 1.15 | 1.2
61 | Nc1ncnc2c1ncn2[C@@H]1O[C@H](CO)[C@@H](O)[C@H]1O | 1.2 | 1.05
62 | Cc1cc(C)c(Nc2ccnc(Nc3ccc(C#N)cc3)n2)c(C)c1 | 0.34 | 0.433
63 | C[C@@H](NC(=O)c1ncnc(N)c1Cl)c1ncc(C(=O)Nc2cc(C(F)(F)F)c(Cl)cn2)s1 | 0.835 | 0.927

Row | Structure (SMILES) | PER2::LUC luminescence (time after treatment 24 h) | PER2::LUC luminescence (time after treatment 30 h)
64 | COc1ccc2c(c1)OCC(Cc1ccc(O)c(OC)c1)C2=O (stereo not drawn) | 0.989 | 0.873
65 | C[n+]1cc2c3c(ccc2c2ccc4cc5c(cc4c21)OCO5)OCO3 | 0.406 and 1.15 | 0.704 and 1.01
66 | CN(C)CCN(Cc1ccccc1)c1ccccn1 | 0.928 and 0.986 | 0.945 and 0.826
67 | CC1CNc2c(cccc2S(=O)(=O)N[C@@H](CCCNC(=N)N)C(=O)N2CC[C@@H](C)C[C@@H]2C(=O)O)C1 (stereo partly drawn) | 1.13 | 0.967
68 | C=CC1=C(C)c2cc3[nH]c(cc4nc(cc5[nH]c(cc1n2)c(C)c5CCC(=O)O)C(CCC(=O)O)=C4C)c(C)c3C=C | 0.988 and 1.03 | 1.09 and 1.15
69 | CO[C@H]1C[C@@H]2CC[C@@H](C)[C@@](O)(O2)C(=O)C(=O)N2CCCC[C@H]2C(=O)O[C@H]([C@H](C)C[C@@H]2CC[C@@H](OCCO)[C@H](OC)C2)CC(=O)[C@H](C)/C=C(\C)[C@@H](O)[C@@H](OC)C(=O)[C@H](C)C[C@H](C)/C=C/C=C/C=C/1C | 0.46 | 0.491
70 | Fc1ccc(Cl)cc1-c1nc(Nc2ccncc2)c2nccnc2n1 | 0.671 | 0.55
71 | Nc1ccn([C@@H]2O[C@H](CO)[C@@H](O)C2(F)F)c(=O)n1 | 0.545 and 0.575 | 0.512 and 0.376
72 | CC(O)C(=O)O.N (stereo not drawn) | 0.956 | 0.88
73 | COc1ccccc1N1CCN(CCN(C(=O)C2CCCCC2)c2ccccn2)CC1 | 1.26 and 1.11 | 1.14 and 1.03
74 | CN1C(=O)CC(c2ccccc2)C1=O (stereo not drawn) | 1.01 and 1.03 | 0.998 and 1.12
75 | CC(=O)O[C@@]12CO[C@@H]1C[C@H](O)[C@@]1(C)C(=O)[C@H](O)C3=C(C)[C@@H](OC(=O)[C@H](O)[C@@H](NC(=O)OC(C)(C)C)c4ccccc4)C[C@@](O)([C@@H](OC(=O)c4ccccc4)[C@H]21)C3(C)C | 0.482 and 0.484 | 0.597 and 0.584
76 | COc1ccc(-c2coc3c(O)c(OC)ccc3c2=O)cc1 | 1.26 | 1.11
77 | CCNC(=O)c1[nH]nc(-c2cc(Cl)c(O)cc2O)c1-c1ccc(OC)cc1 | 0.156 | 0.103
78 | CC(C)c1ccc(NC(=O)Cn2cnc3c2c(=O)n(C)c(=O)n3C)cc1 | 0.992 | 1.12
79 | C[C@H](NC(=O)/C(C#N)=C/c1cccc(Br)n1)c1ccccc1 | 1.06 | 0.721
80 | Cc1c(C2CCN(CCc3ccccc3)CC2)noc1-c1ccc(Cl)cc1 | 0.771 | 0.822
81 | CC(=O)Oc1c(C)c(C)c2c(c1C)CC[C@@](C)(CCC[C@H](C)CCC[C@H](C)CCCC(C)C)O2 | 1.23 | 1.05
82 | CCCC(CCC)C(N)=O | 0.901 | 1
83 | C[C@]12CC[C@@H]3c4ccc(O)cc4CC[C@H]3[C@@H]1CC[C@@H]2O | 1.08 and 1.1 and 1.05 | 1.06 and 1.01 and 1.19
84 | CCN(CC)C(=O)c1cccnc1 | 0.987 and 1.16 | 0.916 and 1.16
